For four substances, binding results are on record in PMC6030115.

The chains behind the UniProt entries cited, without tags or fusion partners. Where a name states a change or a piece, a line headed by the entry shows the natural chain unless it says otherwise. A line that says so, or that is headed by a name, gives the form on record, which may keep a tag or linker. Residues count along the entry.
UniProt P53671: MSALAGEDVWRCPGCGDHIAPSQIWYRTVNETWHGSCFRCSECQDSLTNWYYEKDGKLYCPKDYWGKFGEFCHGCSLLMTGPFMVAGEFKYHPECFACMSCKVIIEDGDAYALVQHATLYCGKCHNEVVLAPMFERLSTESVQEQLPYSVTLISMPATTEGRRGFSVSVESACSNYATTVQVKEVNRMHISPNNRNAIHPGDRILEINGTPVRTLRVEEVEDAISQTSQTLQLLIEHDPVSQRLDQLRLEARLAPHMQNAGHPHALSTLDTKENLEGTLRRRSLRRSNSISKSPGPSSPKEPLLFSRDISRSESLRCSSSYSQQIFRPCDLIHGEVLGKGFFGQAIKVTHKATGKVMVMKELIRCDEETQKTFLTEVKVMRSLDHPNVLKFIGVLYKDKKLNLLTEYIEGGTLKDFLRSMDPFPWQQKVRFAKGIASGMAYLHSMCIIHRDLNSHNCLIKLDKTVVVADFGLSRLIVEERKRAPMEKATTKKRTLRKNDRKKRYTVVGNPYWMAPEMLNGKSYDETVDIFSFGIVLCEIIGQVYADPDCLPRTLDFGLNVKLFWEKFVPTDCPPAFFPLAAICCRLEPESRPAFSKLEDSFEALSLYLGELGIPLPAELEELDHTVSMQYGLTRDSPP
UniProt P53667: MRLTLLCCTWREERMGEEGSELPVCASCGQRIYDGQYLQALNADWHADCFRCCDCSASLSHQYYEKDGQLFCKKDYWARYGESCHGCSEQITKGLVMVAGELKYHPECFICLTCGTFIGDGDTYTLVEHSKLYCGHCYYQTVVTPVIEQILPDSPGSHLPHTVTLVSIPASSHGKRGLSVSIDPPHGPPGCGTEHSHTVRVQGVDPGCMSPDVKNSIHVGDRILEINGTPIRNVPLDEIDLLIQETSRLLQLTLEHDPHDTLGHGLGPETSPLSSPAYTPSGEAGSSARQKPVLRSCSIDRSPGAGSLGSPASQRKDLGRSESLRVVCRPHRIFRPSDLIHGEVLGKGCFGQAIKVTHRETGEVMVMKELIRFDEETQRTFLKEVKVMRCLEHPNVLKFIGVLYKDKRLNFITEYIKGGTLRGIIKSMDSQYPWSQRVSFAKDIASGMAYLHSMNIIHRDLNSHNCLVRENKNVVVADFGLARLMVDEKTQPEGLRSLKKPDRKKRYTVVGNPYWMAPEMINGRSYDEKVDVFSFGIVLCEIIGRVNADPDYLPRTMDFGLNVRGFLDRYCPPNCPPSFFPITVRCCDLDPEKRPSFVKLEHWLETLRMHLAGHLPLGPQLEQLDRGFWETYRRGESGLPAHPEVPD
GST-tagged LIMK1 kinase domain: residues 339-604 of P53667
UniProt Q9Y6G9: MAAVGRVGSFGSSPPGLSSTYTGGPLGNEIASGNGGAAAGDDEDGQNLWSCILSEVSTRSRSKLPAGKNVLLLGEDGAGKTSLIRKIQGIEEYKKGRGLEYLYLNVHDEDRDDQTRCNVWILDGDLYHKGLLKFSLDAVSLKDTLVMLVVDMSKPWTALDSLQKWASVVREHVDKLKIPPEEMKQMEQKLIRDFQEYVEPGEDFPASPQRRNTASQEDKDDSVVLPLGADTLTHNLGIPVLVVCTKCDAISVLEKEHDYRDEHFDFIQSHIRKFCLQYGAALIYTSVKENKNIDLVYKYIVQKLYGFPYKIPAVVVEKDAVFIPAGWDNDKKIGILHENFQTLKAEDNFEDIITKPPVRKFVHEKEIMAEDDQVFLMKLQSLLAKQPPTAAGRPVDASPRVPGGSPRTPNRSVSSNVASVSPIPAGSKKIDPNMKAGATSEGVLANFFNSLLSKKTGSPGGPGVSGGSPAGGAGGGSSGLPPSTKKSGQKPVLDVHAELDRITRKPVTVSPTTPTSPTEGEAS
UniProt O43237: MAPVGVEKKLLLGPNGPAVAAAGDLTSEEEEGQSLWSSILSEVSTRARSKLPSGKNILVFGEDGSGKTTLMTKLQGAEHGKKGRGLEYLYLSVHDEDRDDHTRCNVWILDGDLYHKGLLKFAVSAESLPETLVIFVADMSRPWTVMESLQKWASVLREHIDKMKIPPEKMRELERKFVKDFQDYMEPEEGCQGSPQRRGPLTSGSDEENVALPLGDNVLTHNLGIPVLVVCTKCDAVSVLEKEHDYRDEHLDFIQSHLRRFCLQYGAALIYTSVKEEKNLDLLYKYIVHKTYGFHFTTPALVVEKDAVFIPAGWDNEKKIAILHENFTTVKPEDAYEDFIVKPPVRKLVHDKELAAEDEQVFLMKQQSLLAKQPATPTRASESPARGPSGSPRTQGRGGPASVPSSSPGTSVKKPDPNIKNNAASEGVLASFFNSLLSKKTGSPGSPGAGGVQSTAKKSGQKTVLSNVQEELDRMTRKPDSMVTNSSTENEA

These are yes or no findings as the source states them, for the method shown. Binding seen in cells or lysates may run through a third protein. Some entries that bind do so weakly or less than the wild type.

The target of assay [1] is LIMK2 (human (endogenous in HeLa)) (UniProt P53671). The experiment in a line: co-IP; endogenous proteins; HeLa cells synchronized to M phase with nocodazole for 16 h (interaction with LIMK1 also told for asynchronized cells); lysate incubated with anti-LIMK1 or anti-LIMK2 on magnetic Protein A beads, non-immunized rabbit IgG as control; washed four times with mammalian cell lysis buffer; western blot.

Assay [2] has as its target LIM kinase1 (human (endogenous in HeLa)) (UniProt P53667). The description is as above.
The target of assay [3] is GST-tagged LIMK1 kinase domain (UniProt P53667). The experiment in a line: pull-down; HEK 293 cells co-transfected with GST-tagged LIMK1 constructs and FLAG-LIC1 or FLAG-LIC2 for 24 h; lysate on Glutathione Sepharose 4B beads, washed thrice with mammalian cell lysis buffer; western blot with FLAG and GST antibodies. In general terms: Immunoblotting shows a protein as a band on a membrane.

For the substance “Cytoplasmic dynein 1 light intermediate chain 1 (from UniProt Q9Y6G9 1-523)”, the binding result is listed as “no binding” in assay [1] and “binds” in assay [2].

Turning to FLAG-LIC2 (from UniProt O43237 1-492), the binding result in assay [3] was “binds”.

Turning to FLAG-LIC1 (from UniProt Q9Y6G9 1-523), in assay [3], the binding result is on record as “binds”.

For “Cytoplasmic dynein 1 light intermediate chain 2 (from UniProt O43237 1-492)”, the binding entry in assay [1] was “no binding”; in assay [2] it was “binds”.
